Assay results published in PMC4336329 (PLoS ONE, 2015).
About 14,000 (4.5%) of roughly 310,000 compounds showed an effect of 50% or more. The effect is printed as a negative number. This is one part of the list.

The molecules below were run against human ether-à-go-go-related gene (hERG) potassium channel (human, UniProt Q12809) (assay: primary screen, population patch clamp on CHO cells stably expressing hERG).
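Note: peak tail current of the secondary pulse compared with the same well before compound.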

Chain of human ether-à-go-go-related gene (hERG) potassium channel (Q12809 whole entry, looked up): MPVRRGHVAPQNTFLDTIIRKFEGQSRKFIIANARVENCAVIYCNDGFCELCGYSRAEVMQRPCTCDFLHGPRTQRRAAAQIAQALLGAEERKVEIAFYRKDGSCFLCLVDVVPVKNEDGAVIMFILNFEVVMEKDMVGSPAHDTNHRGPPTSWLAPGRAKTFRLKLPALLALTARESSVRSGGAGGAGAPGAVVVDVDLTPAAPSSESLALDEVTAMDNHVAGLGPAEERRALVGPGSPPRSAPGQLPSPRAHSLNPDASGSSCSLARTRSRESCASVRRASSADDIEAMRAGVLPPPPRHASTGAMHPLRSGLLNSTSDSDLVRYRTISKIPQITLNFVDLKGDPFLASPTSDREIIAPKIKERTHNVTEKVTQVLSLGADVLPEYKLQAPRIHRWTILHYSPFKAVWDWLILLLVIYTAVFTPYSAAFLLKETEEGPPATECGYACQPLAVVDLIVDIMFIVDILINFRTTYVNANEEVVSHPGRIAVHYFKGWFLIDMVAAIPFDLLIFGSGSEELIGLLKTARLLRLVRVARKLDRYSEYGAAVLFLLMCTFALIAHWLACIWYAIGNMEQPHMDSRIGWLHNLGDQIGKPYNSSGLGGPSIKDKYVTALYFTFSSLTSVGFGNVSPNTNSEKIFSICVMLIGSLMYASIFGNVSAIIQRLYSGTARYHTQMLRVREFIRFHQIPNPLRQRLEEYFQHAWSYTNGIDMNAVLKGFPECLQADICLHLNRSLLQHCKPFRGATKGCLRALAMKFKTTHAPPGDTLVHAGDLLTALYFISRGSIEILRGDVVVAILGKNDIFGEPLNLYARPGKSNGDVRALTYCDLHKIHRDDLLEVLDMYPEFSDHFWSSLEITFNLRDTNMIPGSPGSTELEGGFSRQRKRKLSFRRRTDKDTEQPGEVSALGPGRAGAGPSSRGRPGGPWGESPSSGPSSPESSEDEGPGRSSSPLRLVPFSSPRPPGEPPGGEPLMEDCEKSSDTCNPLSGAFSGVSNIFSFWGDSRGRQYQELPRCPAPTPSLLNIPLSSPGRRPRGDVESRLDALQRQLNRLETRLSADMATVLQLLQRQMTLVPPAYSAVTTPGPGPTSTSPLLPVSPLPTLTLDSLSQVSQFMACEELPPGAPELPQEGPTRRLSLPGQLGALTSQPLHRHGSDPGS

Row | SMILES | hERG current change (%, negative = inhibition) at 10uM
1 | COC(=O)NNC(=O)c1ccccc1OC | 11.2%
2 | COc1ccc(/C(C)=N\NC(=O)c2ccc3c(c2)OCO3)cc1OC | -14.7%
3 | COC(=O)c1cc(S(=O)(=O)Nc2ccc(C)c(F)c2)c[nH]1 | 9.98%
4 | Nc1cc(=O)[nH]c(SCC(=O)Nc2ccc([N+](=O)[O-])cc2)n1 | 1.76%
5 | O=C(NCc1ccncc1)c1cc2ccccc2nc1Cl | -20%
6 | Cc1nn(-c2ccccc2Cl)c(Cl)c1/C=C(\C#N)C(N)=O | 5.3%
7 | CCn1nc(C(=O)NNC(=O)COc2ccc(OC)cc2)c2ccccc2c1=O | -23.4%
8 | CC1=NN(c2ccccc2)C(=O)C1/C=C1/C(=O)NC(=O)N(c2cc(C)cc(C)c2)C1=O (stereo not shown) | 4.91%
9 | CCOc1ccc(NC(=O)CC(NC(C)=O)c2ccccc2)cc1S(=O)(=O)N1CCCC1 (stereo not shown) | 1.19%
10 | Cc1cc(NC(=O)C2CC(=O)N(c3ccccc3)C2)no1 (stereo not shown) | 24.4%
11 | O/N=C/c1cc(Br)ccc1OCc1ccc(F)cc1 | 2.93%
12 | Fc1ccc(CNC(=S)NCc2ccc(F)cc2)cc1 | -18%
13 | COCCOC(=O)C1=C(C)NC(=O)NC1c1cccc(F)c1 (stereo not shown) | 10.8%
14 | Cc1cc(C)n2ncc(C(=O)Nc3ccc4c(c3)OCO4)c2n1 | 19.6%
15 | Nc1ccc(C(=O)OCC(=O)N2CCOCC2)cc1[N+](=O)[O-] | 9.29%
16 | CCOC(=O)N1CCC(NC(=O)CCc2nc(C3=CCN(C)CC3)no2)CC1 | -3.37%
17 | CCOC(=O)CP(=O)(c1ccccc1)c1ccccc1 | 5%
18 | Cc1ccc(NC(=O)CN(C)C(=O)COc2ccc(C(=O)c3ccc(F)cc3)cc2)cc1 | -7.66%
19 | CCCn1c(CCC(=O)O)ccc1-c1ccccc1 | 24.2%
20 | O=C(CCS(=O)(=O)c1cccc2nonc12)Nc1cccc2c1CCCC2 | 4.5%
21 | Cc1cc(C)nc(NS(=O)(=O)c2ccc(NC(=O)C3CC3)cc2)n1 | 24%
22 | CC(C(=O)Nc1c2c(cc3c1CCC3)CCC2)N1CCCC1.Cl.O (stereo not shown) | -10.7%

Row | SMILES | hERG current change (%, negative = inhibition) at 10uM
23 | COc1cccc(C(=O)NCC(C)(C)SCc2ccc(F)cc2)c1 | -28.2%
24 | O=C(NNC(=O)c1ccccc1-n1cccc1)c1ccc(Cl)nc1 | 14%
25 | CC1(C)Cc2c(sc(NC(=O)C(=O)NCC3CCCO3)c2C(N)=O)CO1 (stereo not shown) | 9.48%
26 | Cc1ccc(-c2ccc(=O)n(Cc3ccc(F)cc3)n2)cc1 | 3.67%
27 | O=C(CNC(=O)c1cccc(F)c1)N/N=C/c1cc(Br)ccc1OCc1ccccc1 | 0.915%
28 | CC(=O)C1C(c2ccncc2)NC(=O)NC1(O)C(F)(F)F (stereo not shown) | 1.55%
29 | CCCCN(C)C(=O)Cc1c(OC)ccc2cc(Br)ccc12 | -19.6%
30 | CC(C)NC(=S)Nc1c(N)[nH]c(=O)[nH]c1=O | 17%
31 | N#Cc1ccc(OCC(O)CN2CCN(c3ncc(C(F)(F)F)cc3Cl)CC2)cc1 (stereo not shown) | -74.6%
32 | CN(C)S(=O)(=O)c1ccc(N2CCCC2)c(C(=O)Nc2nc(-c3ccc(F)cc3)cs2)c1 | 7.27%
33 | Cc1[nH]c2ccccc2c1C(=O)C(C)OC(=O)c1ccc(Cl)nc1 (stereo not shown) | -12.9%
34 | CCN(CC(=O)NCc1cccs1)c1ccc(S(=O)(=O)N2CCCC2)cn1 | -27.3%
35 | Cc1ccc(Cn2nnc3c(=O)[nH]c(C4CCCN(C(=O)Nc5ccc(F)cc5F)C4)nc32)cc1 (stereo not shown) | -27.4%
36 | Cc1noc2ncnc(Oc3ccccc3)c12 | 7.32%
37 | COc1ccc(C(=O)NCCS(=O)(=O)NCc2cccnc2)cc1 | 2.97%
38 | C=CCn1cnc2c(nnn2-c2cc(C)cc(C)c2)c1=O | -10.4%
39 | CCOC(=O)c1c(O)c(O)c(C(=O)OCC)n1-c1ccccc1 | 7.92%
40 | CCOc1ccc(C2/C(=C(\O)c3ccc4c(c3)OCCO4)C(=O)C(=O)N2CCN2CCOCC2)cc1OCC (stereo not shown) | 2.29%
41 | CN(C)S(=O)(=O)N1CCN(C(=O)c2ccccc2)CC1 | 8.25%
42 | CC1(C)CC(=O)C=C(Nc2ccc(C(=O)O)c(O)c2)C1 | 15.2%
43 | O=C(Nc1ccc(Cc2ccncc2)cc1)C1CCC(N2C(=O)C3CCCCC3C2=O)CC1 (stereo not shown) | 10.8%
44 | Cc1cc(S(=O)(=O)Nc2ccc(C(=O)NCc3cccnc3)cc2)ccc1F | -12%

Row | SMILES | hERG current change (%, negative = inhibition) at 10uM
45 | CC(C(=O)NCC1CCCCC1)N1CCN(S(=O)(=O)c2ccccc2F)CC1 (stereo not shown) | -0.194%
46 | CCN(CC)c1ccc2c(c1)CCCN2.Cl | 7.87%
47 | O=C(COc1ccccc1)N1CCN=C1SCc1cccc(F)c1 | -0.69%
48 | CC(C)Cc1nc2sc3c(=O)[nH]cnc3c2c2c1CCC2 | 2.32%
49 | Clc1ccc(Cn2nc(-c3ccccc3)nc2-c2ccccc2)cc1 | -8.99%
50 | O=C(c1ccccc1)C1CCN(CC(=O)N2CCN(c3ccccc3)CC2)CC1 | -14.9%
51 | Cc1cccc(NS(=O)(=O)c2cccc(C(=O)N3CCC3)c2)c1 | 6.44%
52 | O=C(NCc1ccccc1)C1CCC(=O)N(CCN2CCOCC2)C1 (stereo not shown) | 21.1%
53 | CN1CCN(c2ccc([N+](=O)[O-])c(Sc3nc4ccccc4[nH]3)c2)CC1 | -19.7%
54 | C(=C\c1ccccc1)/C=N/Nc1ccc2nncn2n1 | -19.7%
55 | COc1ccc(-n2cnc3sccc3c2=O)cc1 | 13.3%
56 | Cc1ccc(SCC(=O)Nc2ccc(N3CCN(C)CC3)c(F)c2)cc1 | -64.4%
57 | N#Cc1ccc(C(=O)OCC(=O)N2CCCC2)cc1 | 29.2%
58 | CNc1nc(N)c([N+](=O)[O-])c(NCC2CCCO2)n1 (stereo not shown) | 11.3%
59 | CN(NC1CC(=O)N(c2ccccc2)C1=O)c1ccccc1 (stereo not shown) | 3.71%
60 | CC(NC(=O)Nc1ccc2c(c1)OCO2)c1ccncc1 (stereo not shown) | -12.4%
61 | Cc1ccc(NS(=O)(=O)c2ccc(C(=O)N3CC(C)CC(C)C3)cc2)cc1 (stereo not shown) | -58.7%
62 | CN(CC(=O)Nc1cccnc1)S(=O)(=O)c1cc(Cl)ccc1Cl | -29.4%
63 | CCCNC(=O)c1onc(CSc2ccc(Cl)cc2)c1C(=O)NCCOC | -19.7%
64 | Cc1nccc(-c2sc(-c3cccs3)nc2C)n1 | 0.0313%
65 | Cc1ccc(/C=C/C(=O)NC2=NCCS2)cc1 | 0.402%
66 | Cc1nn(C)cc1/C=N/NC(=O)C(C)(C)Oc1ccc(Cl)cc1 | 0.613%

Row | SMILES | hERG current change (%, negative = inhibition) at 10uM
67 | O=C(O)c1cc(Cl)c2c(c1)[C@@H]1C=CC[C@@H]1[C@H](c1ccc(S(=O)(=O)N3CCOCC3)cc1)N2 | -0.659%
68 | CCOC(=O)C(NC(=O)CC)(Nc1ccc(S(=O)(=O)Nc2cc(C)on2)cc1)C(F)(F)F (stereo not shown) | 23.6%
69 | COc1ccc(/C=C2\SC(=S)N(CCC(=O)Nc3ccccc3C(=O)O)C2=O)cc1 | 7.79%
70 | Cc1cc(C)nc(NS(=O)(=O)c2ccc(NC(=O)c3cc(=O)c4ccccc4o3)cc2)n1 | 18.8%
71 | COc1ccccc1NC(=O)CSc1nc(=O)n(CCN(C)C)c2c1CCCC2 | -40.4%
72 | CCn1cc(/C=C(\NC(=O)c2ccccc2F)C(=O)N2CCOCC2)c2ccccc21 | -4.61%
73 | CN1CCN(CC(=O)Nc2ccc(OC(F)(F)F)cc2)CC1.Cl | -65.1%
74 | CCN(CC)C(=O)CN(C#N)c1nc(C)cc(C)n1 | 19.4%
75 | COc1ccc(-c2[nH]ncc2CN2CCC(OCc3ccccn3)CC2)c(F)c1 | -31.1%
76 | CN1CC(c2ccccc2)C2(COc3ccccc3C2=O)C12C(=O)Nc1ccccc12 (stereo not shown) | -3.09%
77 | CCSc1nnc(NC(=O)CSc2nc3c(c(=O)n2-c2ccccc2OC)SCC3)s1 | -26.2%
78 | C=CCSc1nnc(-c2cc(C(C)(C)C)nn2Cc2ccc(F)cc2)n1C | -3.17%
79 | Nc1c(C(=O)N2CCCC2)sc2nc(-c3ccccc3)ccc12 | -70.7%
80 | Nc1c(C(=O)C2CC2)sc2nc(-c3ccccc3)cc(C(F)(F)F)c12 | 18.8%
81 | CCOC(=O)C1CCN(C(=O)COC(=O)C2CCN(S(=O)(=O)c3ccc4c(c3)OCCO4)CC2)CC1 | -24.8%
82 | CCCCCCSc1cccc(-c2nc3cc(C)ccn3c2NC2CCCCC2)c1.O=C(O)C(F)(F)F | 0.642%
83 | CN(C(=O)c1ccnn1C)C1CCCN(Cc2ccccc2F)C1 (stereo not shown) | 15.2%
84 | Cc1cc(-n2c(C)cc(C(=O)COc3ccc([N+](=O)[O-])cc3)c2C)no1 | -20.5%
85 | Cn1c2ccccc2c2cc(C(=O)N3CCN(CCO)CC3)sc21 | -1.19%
86 | CCOc1ccc(NC(=O)CCS(=O)(=O)c2ccc3c(c2)CCCN3C(=O)CC)cc1 | -21.4%
87 | O=C(COc1coc(CN2CCc3ccccc3C2)cc1=O)Nc1ccc(F)cc1 | 3.91%
88 | CC(C)CCN1CCN(Cc2nc(-c3ccccc3)cs2)CC1CCO (stereo not shown) | -62.7%
